Data taken from the supplement of paper PMC4166925.
± gives the standard deviation of the averaged measurements. In all, about 33,000 sequences were measured (“E-score (dimensionless, -0.5 to 0.5)”: median about -0.046, highest 2% from about 0.36 on). The list shows a part of the results.

Test system: T1, SpTbr T-box DNA-binding domain (GST fusion)
T1 sequence: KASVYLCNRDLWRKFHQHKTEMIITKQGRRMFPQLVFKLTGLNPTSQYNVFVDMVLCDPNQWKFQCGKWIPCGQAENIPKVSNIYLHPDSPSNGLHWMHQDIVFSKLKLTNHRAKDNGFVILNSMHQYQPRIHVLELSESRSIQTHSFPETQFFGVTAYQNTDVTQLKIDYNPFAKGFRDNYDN
Assay: PBM E-score of 8-mer (E-score (dimensionless, -0.5 to 0.5)); Tbr is Tbrain of the sea star Patiria miniata (Pm) or the sea urchin Strongylocentrotus purpuratus (Sp); higher = stronger binding preference; most listed sequences are background and not binding sites
Settings: the construct has about 5 more residues each side
Description: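 Universal protein-binding microarray (Agilent AMADID 016060, 60-bp probes with a 35-bp variable region) incubated with 200 nM GST-fused Strongylocentrotus purpuratus Tbr T-box DNA-binding domain (residues 362-554) in PBS pH 7.5. Scored for every ungapped 8-mer (given with its reverse complement) as E-score (range -0.5 to 0.5; >0.45 counts as bound) and Z-score of median probe intensity. Two replicate arrays (datasets 1 and 2).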
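Also: protein at 200 nM in PBS on universal double-stranded arrays.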

Sequence	PBM E-score of 8-mer
ATGTAGCG	-0.0672 ± 0.014
ATAGAGGA	-0.171 ± 0.091
AGGCCGCC	-0.211 ± 0.04
ACCGGCCA	-0.0189 ± 0.059
GAGATCCC	-0.0427 ± 0.023
AATGGATC	-0.0632 ± 0.037
GAGATAAA	-0.0976 ± 0.1
ACCTCAGA	0.0888 ± 0.023
AGTCACAT	0.1318 ± 0.0012
TGTGGTAA	0.133 ± 0.02
CTCACAAC	0.323 ± 0.0075
TAATCGGA	0.0595 ± 0.1
ATCCTCGA	0.0575 ± 0.0023
CGTTAAGA	0.0695 ± 0.037
CGCGAGAG	0.261 ± 0.023
ACGGAAAA	-0.112 ± 0.0046
AACCGGAC	-0.18 ± 0.04
ATGGTCAC	0.0482 ± 0.081
ATCCCAGA	-0.0492 ± 0.043
CCACAGAG	-0.188 ± 0.062
TCTATGAA	-0.0704 ± 0.064
CCAAAACA	0.0346 ± 0.013

Sequence	PBM E-score of 8-mer
ACCTGCCA	0.261 ± 0.023
GGCTGCAA	-0.0937 ± 0.073
TGCTTCAA	-0.12 ± 0.0093
ACATTCCA	-0.0743 ± 0.017
ACTAATCA	0.0319 ± 0.027
CAATTTCG	0.026 ± 0.04
ACTGGCGA	0.183 ± 0.034
ACGACATC	-0.0327 ± 0.082
CACTACCC	0.0258 ± 0.021
AATGGAAG	-0.0645 ± 0.12
CTGCCGAA	-0.0929 ± 0.017
ACACCGAG	0.223 ± 0.0051
CCTGGAAG	-0.0328 ± 0.025
CAGGATCG	0.0982 ± 0.016
AAAGAGAG	-0.0256 ± 0.025
CCCGGAAA	-0.166 ± 0.0047
ACTAGCGC	0.0746 ± 0.061
AGTCATCC	-0.186 ± 0.021
CATAAGGA	-0.176 ± 0.047
GCGCGTAC	0.189 ± 0.031
CAGCCCGG	-0.16 ± 0.07
CTCCGACA	0.248 ± 0.011

Sequence	PBM E-score of 8-mer
ACTCTTGG	0.0491 ± 0.036
AGGCTCTA	-0.194 ± 0.043
CCCATCGG	-0.173 ± 0.073
TCAAGAGA	-0.146 ± 0.066
ATCGCTCC	-0.00967 ± 0.043
TCATATCA	0.0665 ± 0.022
CCATCCAC	0.000305 ± 0.018
AACTGATC	-0.0634 ± 0.015
CCGCAACG	-0.206 ± 0.061
ATTATCAA	-0.0682 ± 0.11
ATAGGGTG	0.202 ± 0.0067
GTTGGATA	0.0211 ± 0.034
ACTATGAC	0.16 ± 0.0057
ATTTGTCG	0.156 ± 0.017
AAATTACG	-0.0498 ± 0.015
ACGAACTG	0.0146 ± 0.005
AGGGATGC	-0.106 ± 0.045
AAGCCTTG	-0.0684 ± 0.018
ACGTAAGT	-0.0022 ± 0.049
CCTATCCA	-0.128 ± 0.06
CCGGAGCC	-0.154 ± 0.019
ATACGATA	0.0458 ± 0.0051

Sequence	PBM E-score of 8-mer
GCCTGGCC	-0.11 ± 0.042
ACCTTGAA	0.078 ± 0.032
GACTATGC	-0.0275 ± 0.051
ACCTAGTC	0.0902 ± 0.049
AGGGCTAT	-0.3048 ± 0.0006
TCACATCA	0.244 ± 0.0068
CCTCATGA	-0.17 ± 0.052
GACCACCC	-0.0294 ± 0.0021
TACACGAA	-0.0857 ± 0.046
ATCCGTTG	0.055 ± 0.03
ATGGATGA	-0.161 ± 0.039
CAAGAGGG	-0.0842 ± 0.019
AACGTATG	-0.15 ± 0.013
ACCACCCG	0.19632 ± 0.00012
CGGGAGAA	-0.0944 ± 0.018
AGGAGTTA	-0.0738 ± 0.06
TACGGGAA	-0.184 ± 0.049
GTCGTTTA	0.0537 ± 0.065
AGATGATG	-0.186 ± 0.03
ACCCCAGT	-0.26 ± 0.041
CAGGAAGG	-0.0666 ± 0.017
CTTCCATA	-0.266 ± 0.054

Sequence	PBM E-score of 8-mer
CAGGTAGA	0.0271 ± 0.053
GGCCGTTA	-0.0839 ± 0.031
GGGGGGCA	-0.299 ± 0.035
TGACCCCA	-0.112 ± 0.051
GGCTAGCC	-0.125 ± 0.013
ACGGGCTG	-0.04 ± 0.019
AGTTAACG	0.127 ± 0.006
TCGGTAGA	-0.12 ± 0.029
CAGTCTAA	-0.234 ± 0.013
AAAATCTT	-0.306 ± 0.05
AGAGGGAG	-0.151 ± 0.094
ACCGGCAC	0.143 ± 0.016
ACAGTGAG	0.182 ± 0.035
CTTAGACC	0.121 ± 0.036
AATTACCT	0.0506 ± 0.021
GGGCATTA	-0.0886 ± 0.022
CTTAGCTC	-0.108 ± 0.0053
CCTTCCAC	0.117 ± 0.00096
GCTCACTA	0.106 ± 0.035
ACTTGTAC	-0.109 ± 0.04
CCTCTTCC	-0.301 ± 0.058
GACGAACC	-0.0477 ± 0.062
